The values below come from US20240294636A1 (YALE UNIVERSITY, published 2024).

The target in assay [1] is T1, Robo4 (mouse, UniProt Q8C310 28-1012, limits assumed).
T1 sequence (looked up): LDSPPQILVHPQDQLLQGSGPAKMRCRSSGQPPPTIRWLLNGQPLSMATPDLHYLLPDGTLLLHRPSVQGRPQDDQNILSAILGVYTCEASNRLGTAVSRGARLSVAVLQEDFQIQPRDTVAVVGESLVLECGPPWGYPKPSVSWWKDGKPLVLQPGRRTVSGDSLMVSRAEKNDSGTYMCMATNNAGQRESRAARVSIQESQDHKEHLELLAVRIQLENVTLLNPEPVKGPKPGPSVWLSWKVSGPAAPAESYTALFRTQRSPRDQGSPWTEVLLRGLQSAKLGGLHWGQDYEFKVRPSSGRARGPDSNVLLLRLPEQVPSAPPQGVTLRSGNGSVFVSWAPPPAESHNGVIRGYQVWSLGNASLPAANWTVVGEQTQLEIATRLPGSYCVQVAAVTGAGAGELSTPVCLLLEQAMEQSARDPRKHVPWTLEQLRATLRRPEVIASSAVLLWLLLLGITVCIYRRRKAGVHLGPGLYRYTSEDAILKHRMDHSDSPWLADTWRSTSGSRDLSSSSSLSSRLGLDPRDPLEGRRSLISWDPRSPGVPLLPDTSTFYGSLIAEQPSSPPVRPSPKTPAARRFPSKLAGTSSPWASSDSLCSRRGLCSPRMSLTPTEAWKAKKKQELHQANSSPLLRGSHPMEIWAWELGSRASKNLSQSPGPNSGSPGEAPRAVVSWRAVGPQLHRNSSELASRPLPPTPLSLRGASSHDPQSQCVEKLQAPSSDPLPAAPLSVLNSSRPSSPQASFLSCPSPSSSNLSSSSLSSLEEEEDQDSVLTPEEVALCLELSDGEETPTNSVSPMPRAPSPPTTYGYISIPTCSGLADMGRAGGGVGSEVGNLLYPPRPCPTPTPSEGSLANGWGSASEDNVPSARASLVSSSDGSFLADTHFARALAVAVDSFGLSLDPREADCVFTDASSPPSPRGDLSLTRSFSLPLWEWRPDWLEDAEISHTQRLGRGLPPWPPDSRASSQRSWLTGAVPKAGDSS
The assay is described as follows: co-immunoprecipitation with Unc5B (IP: Unc5B (R&D)) from brain lysates of antibody-injected mice, western blot. A general note: Immunoblotting shows a protein as a band on a membrane.

Assay [2] deals with T2, Netrin-1 (mouse, UniProt O09118 25-604).
T2 construct: also called recombinant mouse Netrin-1
The description is as above.

B1: mouse Unc5B (receptor)
chain: not shown
notes: whole, on cells; Endogenous protein; also called Uncoordinated 5B
On to B1, for which the binding result in assay [1] and in assay [2] was “binds” in each case.
